# Source: the supplement of paper PMC6531468
# The other results are listed elsewhere or left out. These are enrichments in a pooled selection; single values are uncertain. Each score is taken over the longer molecules that contain the sequence shown.
# Target: IMP3 full-length (UniProt O00425)
# Experiment: 6-mer SELEX enrichment z-score vs GST control; IMP3 is the RNA-binding protein IGF2BP3; higher = more enriched by binding
# Details: construct: FL IMP3 (1-579); SELEX round: R4
# Method: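 SELEX-seq with GST-tagged full-length IMP3 and an N40 RNA pool, round 4. Each 6-mer is scored as an enrichment z-score of sequence tags containing it, normalised to the matching GST SELEX round. RNA written as DNA (T = U).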
# Chain of UniProt O00425 (O00425 whole entry): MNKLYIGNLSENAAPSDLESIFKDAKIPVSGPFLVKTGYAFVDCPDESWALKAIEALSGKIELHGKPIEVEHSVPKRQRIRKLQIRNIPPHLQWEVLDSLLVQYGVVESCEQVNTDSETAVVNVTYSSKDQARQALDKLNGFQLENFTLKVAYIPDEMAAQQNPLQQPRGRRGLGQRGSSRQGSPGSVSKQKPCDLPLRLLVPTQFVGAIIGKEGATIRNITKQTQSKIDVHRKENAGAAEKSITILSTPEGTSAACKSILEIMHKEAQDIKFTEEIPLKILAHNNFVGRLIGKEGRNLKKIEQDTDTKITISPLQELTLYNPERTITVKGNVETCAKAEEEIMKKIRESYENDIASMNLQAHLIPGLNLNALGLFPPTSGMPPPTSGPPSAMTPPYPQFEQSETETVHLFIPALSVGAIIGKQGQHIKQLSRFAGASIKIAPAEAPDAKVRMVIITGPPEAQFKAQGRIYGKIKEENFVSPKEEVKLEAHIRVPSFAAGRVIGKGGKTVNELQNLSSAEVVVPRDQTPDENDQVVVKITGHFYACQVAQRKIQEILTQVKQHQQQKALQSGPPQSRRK
row,Sequence,6-mer SELEX enrichment z-score
1,CCCGGC,0.639
2,AATTCC,-0.292
3,GGGCCT,0.175
4,TGAAAT,-0.642
5,TATTCC,-0.174
6,ACGGCT,0.917
7,GCCCCT,-0.394
8,GACTCC,-0.763
9,AAACCA,-1.62
10,TTTTTT,0.472
11,TGCAGC,0.69
12,GGTGCC,-0.329
13,CTCGCT,0.037
14,AAGGTT,-0.216
15,GTGTGT,-0.157
16,GCGCAT,1.21
17,CCCCCA,-0.619
18,AACGAA,-1.96
19,TTCTTC,0.264
20,CATGGG,0.779

row,Sequence,6-mer SELEX enrichment z-score
1,ATCCGG,0.19
2,GTGGAG,-0.032
3,TCATTA,1.54
4,CGCTAA,-0.347
5,CAAAAG,-1.67
6,CCCTCC,-0.991
7,ACCAAA,-2.48
8,ATGCTG,0.092
9,TATCTC,0.129
10,TTGGTA,-0.02
11,TGTCGA,-0.281
12,CAGCAG,1.84
13,GTGGTC,0.184
14,TAGTAG,-0.002
15,TGCAAT,0.416
16,GCCAGT,0.493
17,TGGTAA,-0.291
18,CCCTCG,-0.51
19,CATATG,0.801

# System: IMP3 KH3-4
# Experiment: as above
# Details: construct: KH3-4 (377-579); SELEX round: R4
# Method: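 SELEX-seq with GST-tagged IMP3 KH3-4 (Pro377-Lys579) and an N40 RNA pool, round 4. 6-mer z-score of sequence-tag enrichment normalised to the corresponding GST SELEX round; RNA k-mers written as DNA (T for U).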
# Chain of IMP3 KH3-4 (chain, as listed by the source): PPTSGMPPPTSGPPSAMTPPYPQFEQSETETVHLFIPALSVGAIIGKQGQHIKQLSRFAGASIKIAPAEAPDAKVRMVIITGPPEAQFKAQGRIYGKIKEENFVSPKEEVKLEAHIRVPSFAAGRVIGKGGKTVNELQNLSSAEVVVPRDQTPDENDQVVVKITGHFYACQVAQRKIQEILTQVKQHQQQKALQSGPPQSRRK
row,Sequence,6-mer SELEX enrichment z-score
1,CCCGGC,-0.789
2,AATTCC,0.43
3,GGGCCT,-0.278
4,TGAAAT,1.48
5,TATTCC,0.449
6,ACGGCT,0.648
7,GCCCCT,-0.702
8,GACTCC,-1
9,AAACCA,-1.13
10,TTTTTT,1.47
11,TGCAGC,0.185
12,GGTGCC,-1.05
13,CTCGCT,-0.181
14,AAGGTT,0.162
15,GTGTGT,0.1
16,GCGCAT,0.161
17,CCCCCA,-0.851
18,AACGAA,-0.14
19,TTCTTC,0.573
20,CATGGG,0.571

row,Sequence,6-mer SELEX enrichment z-score
1,ATCCGG,-0.378
2,GTGGAG,0.156
3,TCATTA,1.56
4,CGCTAA,0.057
5,CAAAAG,-1.45
6,CCCTCC,-1.23
7,ACCAAA,-2.65
8,ATGCTG,0.452
9,TATCTC,0.144
10,TTGGTA,-0.131
11,TGTCGA,-0.542
12,CAGCAG,0.149
13,GTGGTC,0.03
14,TAGTAG,0.273
15,TGCAAT,0.752
16,GCCAGT,0.223
17,TGGTAA,-0.109
18,CCCTCG,-1.34
19,CATATG,1.33
